Test results as given in the BET-seq Pho4 binding data (Le et al. 2018).
The list shows a part of the results. The energies were worked out here from pooled read counts, against the library average; single values are noisy.

Biological target: T1, Pho4 (S. cerevisiae) (UniProt P07270)
T1 sequence: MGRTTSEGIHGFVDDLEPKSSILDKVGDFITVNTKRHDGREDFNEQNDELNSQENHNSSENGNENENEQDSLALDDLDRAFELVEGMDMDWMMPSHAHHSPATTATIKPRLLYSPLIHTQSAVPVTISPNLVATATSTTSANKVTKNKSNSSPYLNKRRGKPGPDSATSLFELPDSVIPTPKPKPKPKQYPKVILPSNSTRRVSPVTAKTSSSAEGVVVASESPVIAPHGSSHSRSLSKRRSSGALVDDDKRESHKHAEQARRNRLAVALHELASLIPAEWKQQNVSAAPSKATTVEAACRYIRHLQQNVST
Assay: relative binding free energy (BET-seq); higher = weaker binding
Conditions: reference: library average

Sequence	relative binding free energy [kcal/mol]
ACTATCACGTGGTGGT	0.05
CTGGGCACGTGACAGG	-0.05
AATTTCACGTGTGTCT	0.19
TCAGTCACGTGGTAAG	0.13
GGTTGCACGTGGCTCA	0.09
TGGTGCACGTGGGGAC	-0.13
TAAGTCACGTGGGAAC	0.21
GGGCGCACGTGGGTTC	-0.13
GGTGACACGTGGGCGG	0.05
GTGGTCACGTGATTTA	0.32
TTAGACACGTGTATTG	0
TTTGCCACGTGTTGTT	-0.12
TTCGTCACGTGCTGTT	0.06
TGGTGCACGTGTCTAG	-0.09
TTGGCCACGTGTTTTT	0
CTGGACACGTGTGGGC	-0.03
ATGTTCACGTGCGTCG	0.1
TTTAACACGTGGGTTG	-0.14
TTCTGCACGTGATATG	0.12
TGATACACGTGTGAGT	-0.03
GGTGCCACGTGTTTAG	0.07
TGGTTCACGTGTATTC	0.35
GGGGTCACGTGGCGGG	0.09
TTGTGCACGTGGGAGT	0.01
CCGTGCACGTGTGATG	0.26

Sequence	relative binding free energy [kcal/mol]
CCGGGCACGTGTGGGT	-0.07
GAAGTCACGTGTTTGT	0.09
TTCAGCACGTGTTAGA	0.04
GTTGGCACGTGTAGGG	0.14
GTGTTCACGTGATAGA	0.41
ACTTGCACGTGCTTGT	0.03
TATTCCACGTGAGGAG	0.35
TCGCACACGTGAGGGG	0.36
ATATACACGTGCTGTT	-0.06
TAAGGCACGTGACGGG	0.01
AGTACCACGTGTAGGG	-0.18
GTGAGCACGTGGTTGA	-0.13
TCGATCACGTGTTTGG	0.25
AGTAGCACGTGTCGTA	0
TACGTCACGTGTATAT	0.13
TGTAGCACGTGGGGAT	-0.23
CAATTCACGTGGGGAG	0.12
TAGGTCACGTGATGTG	0.24
TCGGTCACGTGTGTGC	0.02
AAGGGCACGTGGTACA	-0.08
ATGGACACGTGCGTGT	-0.12
AAGTTCACGTGGTGAC	0.44
CTGGGCACGTGTGAGG	-0.01
GGGGGCACGTGGTGTC	-0.18
AAACTCACGTGGTGGT	0.11

Sequence	relative binding free energy [kcal/mol]
AGGTTCACGTGTGATT	0.48
GGTAGCACGTGGGTCT	-0.15
GGCCACACGTGGTAGG	0.07
ACTGGCACGTGTTGGA	0.07
GAATGCACGTGGCTGT	0.03
TTGTTCACGTGGTAGC	0.29
CCGGTCACGTGGGGGC	-0.08
AGTTTCACGTGAGAGC	0.5
CTATTCACGTGTGAGG	0.12
TTTAACACGTGCCTGT	-0.02
CGGGACACGTGAGGGA	0.21
TATGTCACGTGCTAAG	-0.02
ATGAACACGTGATGGG	0.08
AGAAGCACGTGTATTT	-0.06
CTGTACACGTGTATGT	0.09
AAGTTCACGTGTGTGT	0.2
GTATACACGTGAAAGG	0.32
GGAGTCACGTGGGACG	0.11
AGTTTCACGTGGGCTG	0.17
ACGGTCACGTGGGATT	0.07
AGTGGCACGTGTAGCC	0.04
AGGTGCACGTGTATTC	0
GGGATCACGTGGGGAC	0.1
ATGATCACGTGTGGTC	0.25
TGGCACACGTGGAGGC	0.2

Sequence	relative binding free energy [kcal/mol]
TGGGGCACGTGAGGGA	0.09
CGGAACACGTGAGGGT	0.23
GTCATCACGTGAGTAG	0.39
ATTTTCACGTGGTACG	0.19
GGCTACACGTGCGGGT	0.13
GCTGTCACGTGCTTGG	0.15
TTTGGCACGTGCATTT	-0.1
GTTGCCACGTGTTATA	0.12
CAGTGCACGTGAGGTT	0.19
TTGCTCACGTGTGGGA	0.22
TGTATCACGTGAGTAA	0.2
GGGTACACGTGGGGCG	-0.02
ATGTGCACGTGGTAAT	-0.02
TGTATCACGTGTATAA	0.19
GATATCACGTGAGAGG	0.26
TATAACACGTGGCGTG	-0.06
TTTTTCACGTGTGTAG	0.27
AGTTTCACGTGTCGAT	0.21
ATGATCACGTGTGAGT	0.08
GTGGGCACGTGCCGGG	-0.11
TTGTGCACGTGCATGC	-0.06
TATCGCACGTGAAGGT	0.23
AGATTCACGTGGGGAG	0.17
GGGGACACGTGATAGT	0.2
TGCGACACGTGTGGGT	0.09

Sequence	relative binding free energy [kcal/mol]
TGGTGCACGTGGATCA	-0.1
TTTGCCACGTGCTTTG	-0.1
GGTTTCACGTGACTTG	0.29
AAGTGCACGTGATGAA	0.11
ATGCTCACGTGTTTGG	0.28
TAGTACACGTGGGTGG	0
GTTTACACGTGTGTCT	0.11
GGTATCACGTGATGGC	0.44
TACATCACGTGTGTTT	0.15
GTTCGCACGTGAGGTG	0.2
CTGGTCACGTGTTCGT	0.17
GAGGACACGTGGGTTT	0.07
AAGTTCACGTGAGCTT	0.38
AATTCCACGTGATTTT	0.25
AGGGGCACGTGTCGAA	-0.19
TTCATCACGTGTGTGG	0.21
TTGTGCACGTGTCGGC	-0.12
GAGTGCACGTGGTTGC	0.12
ATTTACACGTGTATGA	0.22
CAATTCACGTGATGGT	0.21
GGGCGCACGTGCTGGG	0
AGAAACACGTGAGGTA	0.41
TGGTTCACGTGGCGCA	0.06
GCGTACACGTGTTGGG	0.12
AGTTGCACGTGAGCTG	0.16

Sequence	relative binding free energy [kcal/mol]
GTAGACACGTGTGTTG	-0.05
TTGCGCACGTGTAAAT	0.11
CTCGTCACGTGGGGGG	-0.24
AATGGCACGTGAGGGG	0.15
GTGTCCACGTGGTTAT	-0.06
GGATGCACGTGGGGAG	-0.08
CCGTGCACGTGGGGCG	-0.24
CGGATCACGTGTGGAG	0.34
CTATTCACGTGGTATA	0.13
GGAAGCACGTGTAAAT	0.14
TTGCTCACGTGTTCTT	0.19
TGCCGCACGTGAGGGT	0.09
TTGAGCACGTGCCTGG	-0.13
GGGAACACGTGTTCGG	0.1
AAAGTCACGTGATGTA	0.08
GGGATCACGTGAAGTT	0.42
GTCGTCACGTGGCGCG	0.13
TTTGGCACGTGGCCGA	-0.21
TTATGCACGTGCAGGG	-0.03
GTGTACACGTGAAATT	0.21
GGCTTCACGTGGTGTC	0.34
